According to the RNAGym collection of RNA variant scans (doi:10.1073/pnas.2313332121):
Variants at the floor of the assay are shown more often than the library holds them.

B1: TPR 5TU (parent)
chain: GGAUCUUCUCGAUCUAACAAAAAAGACAAAUCUGCCACAAAGCUUGAGAGCAUCUUCGGAUGCAGAGGCGGCAGCCUUCGGUGGCGCGAUAGCGCCAACGUUCUCAACUAUGACACGCAAAACGCGUGCUCCGUUGAAUGGAGUUUAUCAUG

Variants of: B1
Assay: polymerase ribozyme fitness, log enrichment relative to wild type (log ratio); higher = more active; in vitro selection for triplet polymerase activity
Summary of the method: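 Frozen incubation at −7 °C formed the core of a single, triplicate in vitro selection round applied to PCR-built, transcribed mutant libraries of each subunit of a heterodimeric triplet polymerase ribozyme. Extended constructs were gel-excised, captured with streptavidin beads and amplified by RT-PCR, and input and output libraries were Illumina-sequenced with a filter of ≥10 input reads and ≥1 read per output. Fitness is the logarithm of genotype enrichment relative to wild-type enrichment, with inverse-variance-weighted replicate averaging, and the logarithm is base 2.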

Row | Variant | polymerase ribozyme fitness (log ratio)
1 | U9G A49G U56A G81C U82G C93U A122C | ≤ -4.2
2 | U9G C10A C43U C57G C99A | ≤ -4.2
3 | C8G G46C U77C G84A C103U A113C A137C | ≤ -4.2
4 | C8G U31A C57U C76U U78C C116U | ≤ -4.2
5 | U9G C75G G80C C87A G141U | ≤ -4.2
6 | U9A A41G A91U C95A C96G U102G G133A U135C | ≤ -4.2
7 | C8A C75A G88U A150G | ≤ -4.2
8 | C8U C10A U31C A91U C108A U109G G126A G143A U145G U148A | ≤ -4.2
9 | C8G U15A G84U C93G | ≤ -4.2
10 | U9A A19U A21U A60G C87G A115C G141U U144G | ≤ -4.2
11 | U9C C38U C51U A52G G74C C85G G143C U145A | ≤ -4.2
12 | U9G C76A U90G | ≤ -4.2
13 | U9G A73U C87U U102A C105G C108A | ≤ -4.2
14 | U9G A20U C36G C54A U56A C75G G86A C123U A137G A150C | ≤ -4.2
15 | C8G A28C C72A U82A C87G G112U G133A A142C U148C A150C | ≤ -4.2
16 | U9C G58U U82G G84U U90G A97G A115U C116A A147G | ≤ -4.2
17 | C8G A26C | ≤ -4.2
18 | C8G U45A G58C G65A C75A G92U C132U | ≤ -4.2
19 | U9A A24G C57U C63A G94C G128A | ≤ -4.2
20 | U9G A30G G62C C95U G141A | ≤ -4.2
21 | U9G A29U U31A U77C C93G G126U | ≤ -4.2

Row | Variant | polymerase ribozyme fitness (log ratio)
22 | C10A A26U U78G C103G U145G | ≤ -4.2
23 | U9C C10G U55A C123U G141A | ≤ -4.2
24 | C8G C54G C85U A121U C131A G136U A137G | ≤ -4.2
25 | C8G A20U A47C A73G C87A C108G C116U G141A | ≤ -4.2
26 | C8U G84A G136C | ≤ -4.2
27 | C10A A12G A23C U55A | ≤ -4.2
28 | C8U G68U | ≤ -4.2
29 | U9A C69U C75U C76U C93A A137C | ≤ -4.2
30 | U9A G42C U55A A73U G83C G84A G88U | ≤ -4.2
31 | C8U U61C G80C C85U C99U U146A | ≤ -4.2
32 | C8U A16G A21G A40U | -4.04
33 | C8G C85U G88U U145C | ≤ -4.2
34 | C8U C35G G59C C96A C103A | ≤ -4.2
35 | C8G C14G C18G C96U A137U | ≤ -4.2
36 | U9C G92A A98G C103G | ≤ -4.2
37 | U9G C35A A39G C87A C125U G143A U151A | -3.88
38 | C8G U15C G59C C76G G84A C96A | ≤ -4.2
39 | C8A G25A U31A C51A A52C G59U A60C G92C | ≤ -4.2
40 | C8G C38A U53G C54G C75A G83U C116A | ≤ -4.2
41 | U9A C27U G48C C76G A91C C118A U135C | ≤ -4.2
42 | U9A G46U C87A C93U | ≤ -4.2

Row | Variant | polymerase ribozyme fitness (log ratio)
43 | C8G C103G | ≤ -4.2
44 | C8U C18U A20U A22C G42C U78A C87A U104A | ≤ -4.2
45 | C8U U53G C87G | ≤ -4.2
46 | U9G C14G A39U G88C | ≤ -4.2
47 | C8U A47G | -3.73
48 | U9C A29U G50U C76U G86U C93U C116G U148C | ≤ -4.2
49 | C8G G71A G74A C79U C87A C116A | ≤ -4.2
50 | C8G C10U C35G C54G U56A U61A C69A G81U G83U | ≤ -4.2
51 | U9G A26U G48A U56C C63A A91C C108G C116G A120U G141C | ≤ -4.2
52 | C8U A28U G62U A113C | ≤ -4.2
53 | U9C A19G G25C A91U C96U | ≤ -4.2
54 | C8U G88U C93U | -4.14
55 | U9A A22G C36U A40C G88U | ≤ -4.2
56 | U9C G83C C87G | ≤ -4.2
57 | U9A G88U | ≤ -4.2
58 | U9A A22U U33C A40C A66G G84A | ≤ -4.2
59 | U9C G11C A24G C35U G59U A60U C105G | ≤ -4.2
60 | U9C A22C G92A G124C A147U | ≤ -4.2
61 | U9C C43G G86A U101G | ≤ -4.2
62 | U9C A17G U55G A66G C75G C85G C123G | ≤ -4.2
63 | U9G G25A A26U U53A C85A | ≤ -4.2

Row | Variant | polymerase ribozyme fitness (log ratio)
64 | U9G A24C A66C C72U G83A A110C A119G U134G | ≤ -4.2
65 | C8G G11U A30C C32G C54U C79G G84A G133A U146G | ≤ -4.2
66 | U9A G74C A91C U130G | ≤ -4.2
67 | U9G U44A U53C C85U C108G A113U U145C | ≤ -4.2
68 | U9C A39G A73U C96U | ≤ -4.2
69 | U9A C57G G84U | ≤ -4.2
70 | C8G A17G G25A C54G G71C C87U U90A C96U C132U | ≤ -4.2
71 | C10A A23U G50C | ≤ -4.2
72 | C8G G59A G92A C132U G141U | ≤ -4.2
73 | C8U C43G A47U A64G G70A C79G C99G U135C G136C U145A | ≤ -4.2
74 | U9G C27G U82C C96A C105U G140A U144A U148C | ≤ -4.2
75 | C8G C10A A30C U56A C57G C87U U102G G143C | ≤ -4.2
76 | C10A A28G U56G C85A | ≤ -4.2
77 | C8G C85G G100A G143C | ≤ -4.2
78 | C8U A24U C51G G84U C103G A119G C125U | ≤ -4.2
79 | C8A U55A G84U C85A | ≤ -4.2
80 | C8U U56A | -3.09
81 | U9G C43U G84C A119G | ≤ -4.2
82 | C8U A91U C95A C96A A97C A113G C114G A115G A147U | ≤ -4.2
83 | C8G U56C G88C A97U C129G A147C | ≤ -4.2
84 | C8G A19U C72U C87G G100A C108A C125G A150C | ≤ -4.2
